# From PubChem BioAssay AID488969 (Vanderbilt High Throughput Screening Facility, 2010)
# In all, about 110,000 compounds were measured (“z-score”: median about -0.1, highest 2% from about 2 on). This is one part of the list. Activity calls are given as the source filed them.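 How the source made its calls: active means z-score in the third read window above 3 or below -3; inactive means the rest.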
# Molecular target: Metabotropic glutamate receptor 8 (Rattus norvegicus) (UniProt P70579)
# Test: mGluR8 Gi/Go-coupled signaling modulation – cell-based, rat, thallium flux, HTS, primary screen (AID 488969)
# Settings: HEK293 rat mGluR8, GIRK (G protein-gated inwardly rectifying potassium channel) thallium flux, FluoZin2; at 10 µM; stronger effect = higher value; submaximal glutamate (EC20) added with thallium
# Sequence of UniProt P70579 (P70579 whole entry, looked up): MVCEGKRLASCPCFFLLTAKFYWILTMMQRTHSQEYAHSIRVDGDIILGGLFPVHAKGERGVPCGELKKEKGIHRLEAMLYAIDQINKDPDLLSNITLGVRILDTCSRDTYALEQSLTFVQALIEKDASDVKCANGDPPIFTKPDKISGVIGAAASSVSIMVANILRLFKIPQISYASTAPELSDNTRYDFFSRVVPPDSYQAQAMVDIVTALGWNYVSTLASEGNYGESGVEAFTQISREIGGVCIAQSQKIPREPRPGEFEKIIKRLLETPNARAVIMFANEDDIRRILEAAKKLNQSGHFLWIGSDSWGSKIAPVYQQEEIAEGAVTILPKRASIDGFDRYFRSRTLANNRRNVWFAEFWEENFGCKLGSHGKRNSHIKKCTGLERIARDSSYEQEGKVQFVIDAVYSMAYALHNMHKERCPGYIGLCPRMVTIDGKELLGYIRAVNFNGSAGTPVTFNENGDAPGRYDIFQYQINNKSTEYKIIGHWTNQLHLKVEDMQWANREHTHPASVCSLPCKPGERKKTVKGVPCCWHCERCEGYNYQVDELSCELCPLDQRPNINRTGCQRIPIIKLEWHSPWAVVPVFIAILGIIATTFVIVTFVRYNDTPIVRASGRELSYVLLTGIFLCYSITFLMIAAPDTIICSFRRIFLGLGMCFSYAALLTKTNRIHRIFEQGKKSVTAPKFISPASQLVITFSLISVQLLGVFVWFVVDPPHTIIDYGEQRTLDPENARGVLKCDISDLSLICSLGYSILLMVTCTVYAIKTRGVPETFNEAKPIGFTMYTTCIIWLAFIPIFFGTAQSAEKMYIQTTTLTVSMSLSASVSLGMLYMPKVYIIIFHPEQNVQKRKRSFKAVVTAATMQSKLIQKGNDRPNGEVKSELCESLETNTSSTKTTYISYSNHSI
row,Compound,z-score
1,CCOC(=O)C(NC(C)=O)(NS(=O)(=O)c1ccccc1)C(F)(F)F (configuration not stated),0.17
2,CC(C)CN1C(=O)c2ccc(NC(=O)c3ccccc3F)cc2C1=O,-0.316
3,COc1cc(NC(=O)C(C)Oc2ccccc2)c(C(=O)O)cc1OC (configuration not stated),-1.95
4,Oc1ccccc1CNc1ccc(Br)cn1,active: 5.86
5,CC(C)N(Cc1nc(-c2ccccc2)no1)C(=O)CN(C)S(=O)(=O)c1ccc(Br)cc1,-0.222
6,CCOC(=O)c1[nH]c2cc(OC)c(OC)cc2c1NC(=O)CN1CCN(C)CC1,-0.276
7,Cn1c(N2CCC(C(N)=O)CC2)nc2c1c(=O)n(Cc1ccc(Cl)cc1)c(=O)n2C,-0.154
8,COc1cc(Br)c(C(C)NC(=O)c2ccc(C)cc2)cc1OC (configuration not stated),0.0238
9,CN(C)CCNC(=O)Nc1cccc(Cl)c1Cl,-0.0247
10,CCCCn1c(-c2cc(Cl)ccc2OC)n[nH]c1=S,-0.132
11,NC(=O)C1CCN(C(=O)Cn2cccc2C(=O)c2ccccc2)CC1,-0.256
12,COc1ccc(Cl)cc1C(=O)Nc1nnn(C)n1,0.00102
13,CC(C)(C)c1cc(CN2CCCC(O)C2)c(O)c(C(C)(C)C)c1 (configuration not stated),-0.11
14,CCC(C)NCCOc1ccc(Br)cc1 (configuration not stated),0.896
15,CC(C)(C)NC(=S)NCCc1ccccc1,-0.166
16,CCCc1cc(C(=O)N2CCN(c3ccccc3C)CC2)cs1,0.332
17,Cc1nc2cc(NC(=O)COc3ccccc3C#N)ccc2n1-c1ccccc1,-0.137
18,Cc1cc(=O)[nH]c(SCC(=O)c2c(N)n(C)c(=O)n(C)c2=O)n1,0.229
19,CCc1nnc(NC(=O)CSc2nnc(Cc3ccccc3)n2-c2ccc(OC)cc2)s1,-0.238
20,N#CCCCSc1nnc(CSc2nc3ccccc3s2)n1-c1ccccc1,-0.337
21,COc1ccc2[nH]c(=O)c(CN(Cc3ccc(C)cc3)Cc3nnnn3CC3CCCO3)cc2c1 (configuration not stated),-0.39
22,CC1=C(C#N)C(c2cccnc2)C2=C(CCCC2=O)N1 (configuration not stated),0.29
23,O=C(Cn1c(CN2CCCCC2)nc2ccccc2c1=O)NC1CCCCC1,-0.467

row,Compound,z-score
1,COc1cc(SC#N)ccc1N=Cc1c(C)[nH]n(-c2ccc(C)cc2C)c1=O,-0.204
2,COc1ccc(NC(=O)CSc2ccc(-c3ccccn3)nn2)cc1OC,-0.397
3,COC(=O)c1c(NC(=O)c2cccs2)sc2c1CCC(C)C2 (configuration not stated),-0.363
4,COc1ccc(/C(C)=C2\SC(=S)N(CCC(=O)O)C2=O)cc1,-0.117
5,Cc1cc(C)n(-c2ccc(C(=O)OCC(=O)NCc3ccc(Cl)cc3)cc2)n1,-0.0509
6,CCSc1nnc(NC(=O)COc2ccc3ccccc3c2)s1,0.705
7,O=C(NCc1ccncc1)c1cnccn1,1.06
8,Cc1nc2ccccn2c1C(=O)NN=C1C2CC3CC(C2)CC1C3,-0.259
9,C=CCNC(=O)c1ccccc1S(=O)c1ccccc1C#N (configuration not stated),-0.0548
10,O=C(NNC(=O)[C@@H]1CCCC[C@@H]1C(=O)O)Nc1ccccc1,-0.216
11,CC(Sc1ccccc1)C(=O)Nc1ccccc1C(=O)N1CCOCC1 (configuration not stated),-1.59
12,COC(=O)C(CC(C)C)NC(=O)CNC(=O)c1ccccc1C (configuration not stated),-0.309
13,COc1ccc(C2N(S(=O)(=O)c3ccccc3)CCN2S(=O)(=O)c2ccc(C)cc2)cc1 (configuration not stated),-0.159
14,O=C(Nc1nccs1)c1ccccc1[N+](=O)[O-],0.0807
15,CC(=O)c1ccc(OCCCN2CCCCC2)cc1,0.547
16,Cc1cccc(N(CC(=O)NCc2ccc3c(c2)OCO3)C(=O)CCC(=O)Nc2ccccn2)c1,-0.254
17,COc1ccc(NC(=O)N2CCCC2C(=O)NCc2ccc(F)cc2)cc1 (configuration not stated),0.0229
18,CCC(C)(C(=O)NC1CCCC1)N(Cc1cccs1)C(=O)Cc1cccs1 (configuration not stated),-1.17
19,CCCCCCCCc1nnc(NC(=O)c2ccco2)s1,0.0845
20,O=C(NC(=S)NCc1ccccc1)C1CCCCC1,-0.483
21,Cc1ccnc(NC(=O)c2sc3ccccc3c2Cl)c1,-0.115
22,COCCSc1ccccc1C(=O)Nc1cccnc1,-0.219
23,Cn1c(=O)c2c(ncn2CC(=O)Nc2ccc(Cl)cc2Cl)n(C)c1=O,-0.103

row,Compound,z-score
1,CC(C)(C)C(=O)Nc1ncc(C(F)(F)F)cc1Cl,-0.133
2,CC(=O)Nc1ccc([N+](=O)[O-])cn1,-0.229
3,CCOC(=O)CSc1nnc(-c2ccco2)n1-c1ccccc1,-1.24
4,COc1ccc(-c2noc(-c3ccccc3-c3ccccc3)n2)cc1,-0.457
5,CSc1nccc(Oc2ccc(C#N)cc2)n1,-0.172
6,COc1ccccc1NC(=O)CSc1nnc(C)o1,0.274
7,CC(=O)N1CCc2cc(S(=O)(=O)NCCCOC(C)C)ccc21,-0.446
8,O=C(Nc1ncn[nH]1)C(F)(F)C(F)F,0.119
9,COC(=O)c1c(CCl)noc1C(=O)NCC1CCCO1 (configuration not stated),0.0146
10,O=C(Nc1nccs1)c1ccc(Cl)c(S(=O)(=O)N2CCCCC2)c1,0.824
11,COc1ccc(CC(=O)NNC(=O)c2ccc(SCc3cc(F)ccc3F)c([N+](=O)[O-])c2)cc1,-0.293
12,COc1cccc(N2CCN(CC(=O)c3c[nH]c4ccc(OC)cc34)CC2C)c1 (configuration not stated),0.109
13,Cc1ccc2[nH]cc(C(=O)CN3CCN(c4ccccc4F)CC3)c2c1,-0.0337
14,CC1(C)CC(=O)C(C=NCCCO)=C(O)C1,0.107
15,CCCn1c(=S)[nH]c2cc(C(=O)N3CCc4ccccc43)ccc2c1=O,1.07
16,CC1CCN(c2nc3ccc(C(=O)N4CCN(Cc5ccc6c(c5)OCO6)CC4)cc3s2)CC1,0.103
17,COc1ccc2nc(SCC(=O)Nc3cc(C)on3)[nH]c2c1,-0.465
18,NS(=O)(=O)c1ccc(N/N=C/c2cn(-c3ccccc3)nc2-c2cccs2)cc1,0.229
19,Cc1cc2c(c(=O)n1C1CC1)C(c1cccc(Cl)c1)C(C#N)=C(N)O2 (configuration not stated),-0.179
20,CCn1c(=O)c2cc(C(=O)N3CCN(C)CC3)sc2c2ccccc21,-1.56
21,Cc1ccc(NC(=O)c2ccc(NCCc3ccccc3)c([N+](=O)[O-])c2)cc1F,0.227
22,COc1ccccc1NS(=O)(=O)c1ccc2oc(SC3CCOC3=O)nc2c1 (configuration not stated),-1.2
23,N#Cc1ccc(OCC(=O)Nc2ccccc2NS(=O)(=O)c2cccs2)cc1,-0.0156

row,Compound,z-score
1,CCOC(=O)C1CCN(Cc2ccc(F)c(F)c2)CC1,-0.221
2,Cc1cc(NC(=O)C(C)C)ncc1NC(=O)c1cccc(F)c1,0.905
3,O=C(c1cccnc1)N1CCN(S(=O)(=O)c2ccc3ccccc3c2)CC1,-0.122
4,COc1nc(-c2ccc(C)cc2)ccc1-c1noc(-c2ccco2)n1,-0.536
5,Cc1cccc(NS(=O)(=O)c2ccc(Oc3ccccc3)cc2)n1,-0.567
6,COc1cc(C)c(Cl)cc1S(=O)(=O)n1ccnc1C,1.18
7,C=CCn1c(Oc2ccc(C(=O)OC)cc2)nc2c1c(=O)n(C)c(=O)n2C,0.0145
8,O=C(Cc1c(F)cccc1Cl)NCCCn1ccnc1,0.869
9,CCCC(=O)Nc1ccc(-c2nc3cc(C)c(C)cc3o2)cc1,0.343
10,Cn1c(CSCc2ccccc2Cl)nnc1SCC(=O)Nc1nccs1,-1.21
11,CCOC(=O)c1ccccc1NC(=O)c1ccc(Cl)c(S(=O)(=O)N2CCOCC2)c1,0.0847
12,CCn1cc(C(=O)NCC2CCCO2)c(=O)c2cc(S(=O)(=O)N3CCC(C)CC3)ccc21 (configuration not stated),-0.915
13,Nc1nonc1C(=O)N/N=C/c1ccc(-c2cccc([N+](=O)[O-])c2)o1,-0.301
14,Cc1cc(C(=O)N/N=C/c2cccn2C)no1,0.00854
15,O=C(COC(=O)CCC(=O)c1cccs1)Nc1cccc(S(=O)(=O)N2CCOCC2)c1,-0.252
16,CCOC(=O)C1=C(CSCc2ccccc2)NC(=O)NC1c1cc(C)ccc1C (configuration not stated),0.201
17,COc1cc(/C=N/NC(=O)c2nc(-c3ccccc3)n(-c3ccccc3)n2)ccc1O,-0.407
18,CCN(CC)C(=O)CN(c1cccc(C(F)(F)F)c1)S(C)(=O)=O,-0.133
19,Cc1ccc(C(=O)CCC2CCCCC2=O)cc1 (configuration not stated),0.502
20,O=C(NCCN1CCOCC1)c1cc2ccccc2o1,0.127
21,CC1Cc2nc(SCC(=O)Nc3ccc4c(c3)OCO4)n(Cc3ccccc3)c(=O)c2S1 (configuration not stated),-0.563
22,Cc1cccc(-n2c(C)cc(C=C(C#N)C#N)c2C)c1,-0.509
23,CCN(CC)C(C)C(=O)NCC1(c2ccccc2)CCOCC1 (configuration not stated),-0.0652

row,Compound,z-score
1,O=C(Cn1cnc2c(cnn2-c2ccccc2)c1=O)c1ccc(Cl)cc1,0.339
2,CCCn1nnc(NC(=O)COc2ccc(CC)cc2)n1,-0.0151
3,CN1C(=O)NC(NC(=O)C2CCCCC2)(C(F)(F)F)C1=O (configuration not stated),-0.749
4,CCN(CC)c1ccc(/C=N/N2CCOCC2)c(O)c1,-0.0856
5,COc1ccc(COCC(O)CN(Cc2ccco2)Cc2ccccc2O)cc1 (configuration not stated),-0.409
6,COc1ccc(C2C(C(=O)Nc3cc(C)on3)c3ccccc3C(=O)N2C)cc1OC (configuration not stated),-0.408
7,O=C1C2C(c3ccccc3)C=CC(c3ccccc3)C2C(=O)N1CCCO (configuration not stated),-0.894
8,Cc1ccc2c(c1)N(CC(=O)N1CCCCC1c1cccnc1)C(=O)CO2 (configuration not stated),-0.309
9,COCCn1c(SCC(=O)Nc2ccc(N3CCOCC3)cc2)nc2ccccc21,-0.228
10,O=C(CN1CCN(Cc2ccccc2Cl)C1=O)NCC1CCCO1 (configuration not stated),-0.183
11,COc1ccc(CNc2ccc(S(N)(=O)=O)cc2)cc1,-0.186
12,COc1ccc(N2C(=O)CCC2(C#N)c2ccc(Br)cc2)cc1 (configuration not stated),-0.0943
13,CC(C)(C)C1CCc2c(sc(NC(=O)c3cc(C4CC4)on3)c2C#N)C1 (configuration not stated),0.662
14,COc1cc(/C=N/N=C2\CC3CCC2(C)C3(C)C)ccc1O (configuration not stated),0.00478
15,CCOc1cc2nc(-c3ccc(OC)c(OC)c3)nc(N3CC(C)OC(C)C3)c2cc1OC (configuration not stated),-0.68
16,Cc1ccc(NC(=O)c2cc(NC(=O)CCC(=O)O)ccc2N2CCCCC2)cc1,active: 4.06
17,Cc1ccc(CNC(=O)CSc2nc(N3CCCCC3)nc(N3CCCCC3)n2)cc1,-0.805
18,CN(C)Cc1c(O)ccc2occ(C(=O)c3ccccc3)c12,0.136
19,CCc1ccc(NC(=O)C2CCN(S(=O)(=O)c3c(C)[nH]c(=O)[nH]c3=O)CC2)cc1,-0.42
20,Cc1ccc(C2=NN(CCC(=O)NCc3ccc4c(c3)OCO4)C(=O)CC2)cc1,-0.148
